# Assay results reported in the supplement of paper PMC10441789.
# The other results are listed elsewhere or left out. Antibody binding of pooled human sera (four to six donors per pool; dilution not stated) to peptides of the Trypanosoma cruzi antigen TSSA on microarrays. Quantile-normalised fluorescence in arbitrary units, mean of duplicate arrays; higher = more binding. No active / inactive call. The uninfected pools are read here as the healthy donors of the same country. The strongest signals lie near the top of the scale (about 60,000).
# Key:
# Assay in all cases: antibody binding signal (normalised fluorescence) (arbitrary fluorescence units); higher = stronger serum antibody binding to peptide
# [1] = tested on: pooled sera of chronic Chagas disease patients, Argentina
# Protocol: (§1)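 Microarray of 15-residue peptides over residues 30-55 of Trypanosoma cruzi TSSAII, each with 1 to 10 substitutions at naturally variable positions, probed with one serum pool per country.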
# [2] = tested on: pooled sera of chronic Chagas disease patients, Bolivia
# Protocol: as §1
# [3] = tested on: pooled sera of chronic Chagas disease patients, Brazil
# Protocol: as §1
# [4] = tested on: pooled sera of chronic Chagas disease patients, Colombia
# Protocol: as §1
# [5] = tested on: pooled sera of chronic Chagas disease patients, Mexico
# Protocol: as §1
# [6] = tested on: pooled sera of chronic Chagas disease patients, USA
# Protocol: as §1
# [7] = tested on: pooled sera of uninfected people, Argentina
# Protocol: as §1
# [8] = tested on: pooled sera of uninfected people, Bolivia
# Protocol: as §1
# [9] = tested on: pooled sera of uninfected people, Brazil
# Protocol: as §1
# [10] = tested on: pooled sera of uninfected people, Mexico
# Protocol: as §1
# [11] = tested on: pooled sera of uninfected people, USA
# Protocol: as §1
sequence,measurement,setting,value
EKKAAAGETPSQSGA,antibody binding signal,[1],887
same,antibody binding signal,[2],295
same,antibody binding signal,[3],4510
same,antibody binding signal,[4],431
same,antibody binding signal,[5],320
same,antibody binding signal,[6],2640
same,antibody binding signal,[7],153
same,antibody binding signal,[8],1330
same,antibody binding signal,[9],130
same,antibody binding signal,[10],308
same,antibody binding signal,[11],1240
DNKPATGGAPSPPGA,antibody binding signal,[1],604
same,antibody binding signal,[2],16400
same,antibody binding signal,[3],4920
same,antibody binding signal,[4],334
same,antibody binding signal,[5],281
same,antibody binding signal,[6],2020
same,antibody binding signal,[7],334
same,antibody binding signal,[8],864
same,antibody binding signal,[9],477
same,antibody binding signal,[10],249
same,antibody binding signal,[11],186
GTDNKAAAGGTPSQS,antibody binding signal,[1],259
same,antibody binding signal,[2],194
same,antibody binding signal,[3],28500
same,antibody binding signal,[4],2150
same,antibody binding signal,[5],313
same,antibody binding signal,[6],1040
same,antibody binding signal,[7],174
same,antibody binding signal,[8],730
same,antibody binding signal,[9],3060
same,antibody binding signal,[10],247
same,antibody binding signal,[11],104
SGTENKAATGGAPSP,antibody binding signal,[1],42300
same,antibody binding signal,[2],17000
same,antibody binding signal,[3],23700
same,antibody binding signal,[4],669
same,antibody binding signal,[5],870
same,antibody binding signal,[6],6920
same,antibody binding signal,[7],629
same,antibody binding signal,[8],457
same,antibody binding signal,[9],197
same,antibody binding signal,[10],188
same,antibody binding signal,[11],148
TENKAAAGGAPSQSG,antibody binding signal,[1],25100
same,antibody binding signal,[2],432
same,antibody binding signal,[3],1800
same,antibody binding signal,[4],2680
same,antibody binding signal,[5],529
same,antibody binding signal,[6],358
same,antibody binding signal,[7],362
same,antibody binding signal,[8],188
same,antibody binding signal,[9],217
same,antibody binding signal,[10],156
same,antibody binding signal,[11],286
GKENKPATGGAPSQP,antibody binding signal,[1],3670
same,antibody binding signal,[2],1040
same,antibody binding signal,[3],24800
same,antibody binding signal,[4],3670
same,antibody binding signal,[5],6100
same,antibody binding signal,[6],10900
same,antibody binding signal,[7],839
same,antibody binding signal,[8],944
same,antibody binding signal,[9],143
same,antibody binding signal,[10],230
same,antibody binding signal,[11],142
KENKTAAGEAPSPSG,antibody binding signal,[1],189
same,antibody binding signal,[2],204
same,antibody binding signal,[3],755
same,antibody binding signal,[4],901
same,antibody binding signal,[5],231
same,antibody binding signal,[6],6640
same,antibody binding signal,[7],234
same,antibody binding signal,[8],130
same,antibody binding signal,[9],143
same,antibody binding signal,[10],112
same,antibody binding signal,[11],138
NKAAAGGAPSQSGAS,antibody binding signal,[1],445
same,antibody binding signal,[2],199
same,antibody binding signal,[3],1840
same,antibody binding signal,[4],4270
same,antibody binding signal,[5],876
same,antibody binding signal,[6],461
same,antibody binding signal,[7],838
same,antibody binding signal,[8],1190
same,antibody binding signal,[9],275
same,antibody binding signal,[10],715
same,antibody binding signal,[11],1050
EKKTATGGAPSPSGA,antibody binding signal,[1],1360
same,antibody binding signal,[2],285
same,antibody binding signal,[3],669
same,antibody binding signal,[4],4220
same,antibody binding signal,[5],909
same,antibody binding signal,[6],1260
same,antibody binding signal,[7],399
same,antibody binding signal,[8],1040
same,antibody binding signal,[9],127
same,antibody binding signal,[10],210
same,antibody binding signal,[11],593
DKKAATGEAPSQPGA,antibody binding signal,[1],23100
same,antibody binding signal,[2],20400
same,antibody binding signal,[3],41500
same,antibody binding signal,[4],186
same,antibody binding signal,[5],401
same,antibody binding signal,[6],23500
same,antibody binding signal,[7],488
same,antibody binding signal,[8],104
same,antibody binding signal,[9],161
same,antibody binding signal,[10],221
same,antibody binding signal,[11],216
STPPSGKDKKPATGG,antibody binding signal,[1],21700
same,antibody binding signal,[2],3200
same,antibody binding signal,[3],14400
same,antibody binding signal,[4],607
same,antibody binding signal,[5],41700
same,antibody binding signal,[6],4120
same,antibody binding signal,[7],583
same,antibody binding signal,[8],465
same,antibody binding signal,[9],168
same,antibody binding signal,[10],142
same,antibody binding signal,[11],302
TEKKTAAGGTPSPPG,antibody binding signal,[1],1140
same,antibody binding signal,[2],236
same,antibody binding signal,[3],213
same,antibody binding signal,[4],13900
same,antibody binding signal,[5],717
same,antibody binding signal,[6],2710
same,antibody binding signal,[7],136
same,antibody binding signal,[8],123
same,antibody binding signal,[9],1460
same,antibody binding signal,[10],481
same,antibody binding signal,[11],296
GTENKTATGGAPSPS,antibody binding signal,[1],27500
same,antibody binding signal,[2],1230
same,antibody binding signal,[3],1010
same,antibody binding signal,[4],1290
same,antibody binding signal,[5],1450
same,antibody binding signal,[6],958
same,antibody binding signal,[7],349
same,antibody binding signal,[8],467
same,antibody binding signal,[9],410
same,antibody binding signal,[10],492
same,antibody binding signal,[11],153
PSGTDNKTAAGEAPS,antibody binding signal,[1],15400
same,antibody binding signal,[2],11600
same,antibody binding signal,[3],41400
same,antibody binding signal,[4],450
same,antibody binding signal,[5],389
same,antibody binding signal,[6],6950
same,antibody binding signal,[7],150
same,antibody binding signal,[8],663
same,antibody binding signal,[9],876
same,antibody binding signal,[10],125
same,antibody binding signal,[11],191
TDKKPATGEAPSQSG,antibody binding signal,[1],43000
same,antibody binding signal,[2],46800
same,antibody binding signal,[3],45900
same,antibody binding signal,[4],392
same,antibody binding signal,[5],187
same,antibody binding signal,[6],37900
same,antibody binding signal,[7],828
same,antibody binding signal,[8],660
same,antibody binding signal,[9],207
same,antibody binding signal,[10],292
same,antibody binding signal,[11],143
GTENKTATGETPSQS,antibody binding signal,[1],24300
same,antibody binding signal,[2],5080
same,antibody binding signal,[3],4770
same,antibody binding signal,[4],3540
same,antibody binding signal,[5],4150
same,antibody binding signal,[6],7680
same,antibody binding signal,[7],127
same,antibody binding signal,[8],365
same,antibody binding signal,[9],179
same,antibody binding signal,[10],218
same,antibody binding signal,[11],117
DNKAAAGGAPSPSGA,antibody binding signal,[1],511
same,antibody binding signal,[2],347
same,antibody binding signal,[3],680
same,antibody binding signal,[4],1800
same,antibody binding signal,[5],420
same,antibody binding signal,[6],745
same,antibody binding signal,[7],444
same,antibody binding signal,[8],392
same,antibody binding signal,[9],290
same,antibody binding signal,[10],693
same,antibody binding signal,[11],290
KKPAAGGTPSQSGAS,antibody binding signal,[1],179
same,antibody binding signal,[2],243
same,antibody binding signal,[3],374
same,antibody binding signal,[4],1540
same,antibody binding signal,[5],170
same,antibody binding signal,[6],459
same,antibody binding signal,[7],292
same,antibody binding signal,[8],113
same,antibody binding signal,[9],667
same,antibody binding signal,[10],109
same,antibody binding signal,[11],267
PPSGKEKKTAAGEAP,antibody binding signal,[1],1180
same,antibody binding signal,[2],744
same,antibody binding signal,[3],2520
same,antibody binding signal,[4],1850
same,antibody binding signal,[5],2770
same,antibody binding signal,[6],3550
same,antibody binding signal,[7],481
same,antibody binding signal,[8],695
same,antibody binding signal,[9],106
same,antibody binding signal,[10],144
same,antibody binding signal,[11],174
KPATGETPSPPGASS,antibody binding signal,[1],30700
same,antibody binding signal,[2],29400
same,antibody binding signal,[3],30600
same,antibody binding signal,[4],172
same,antibody binding signal,[5],228
same,antibody binding signal,[6],21400
same,antibody binding signal,[7],282
same,antibody binding signal,[8],735
same,antibody binding signal,[9],360
same,antibody binding signal,[10],1610
same,antibody binding signal,[11],455
TDNKTATGGAPSPSG,antibody binding signal,[1],575
same,antibody binding signal,[2],553
same,antibody binding signal,[3],662
same,antibody binding signal,[4],580
same,antibody binding signal,[5],384
same,antibody binding signal,[6],559
same,antibody binding signal,[7],267
same,antibody binding signal,[8],384
same,antibody binding signal,[9],326
same,antibody binding signal,[10],260
same,antibody binding signal,[11],218
TPPSGKEKKTAAGET,antibody binding signal,[1],5030
same,antibody binding signal,[2],425
same,antibody binding signal,[3],972
same,antibody binding signal,[4],683
same,antibody binding signal,[5],19800
same,antibody binding signal,[6],1770
same,antibody binding signal,[7],424
same,antibody binding signal,[8],590
same,antibody binding signal,[9],101
same,antibody binding signal,[10],174
same,antibody binding signal,[11],140
DNKPATGETPSQPGA,antibody binding signal,[1],26300
same,antibody binding signal,[2],26000
same,antibody binding signal,[3],36100
same,antibody binding signal,[4],335
same,antibody binding signal,[5],283
same,antibody binding signal,[6],20000
same,antibody binding signal,[7],271
same,antibody binding signal,[8],531
same,antibody binding signal,[9],518
same,antibody binding signal,[10],1480
same,antibody binding signal,[11],206
PSGKENKAAAGETPS,antibody binding signal,[1],15900
same,antibody binding signal,[2],9520
same,antibody binding signal,[3],14900
same,antibody binding signal,[4],22100
same,antibody binding signal,[5],21000
same,antibody binding signal,[6],10700
same,antibody binding signal,[7],6250
same,antibody binding signal,[8],2480
same,antibody binding signal,[9],261
same,antibody binding signal,[10],523
same,antibody binding signal,[11],233
ISTPPSGTDKKPAAG,antibody binding signal,[1],44300
same,antibody binding signal,[2],24700
same,antibody binding signal,[3],46800
same,antibody binding signal,[4],12800
same,antibody binding signal,[5],42900
same,antibody binding signal,[6],12500
same,antibody binding signal,[7],1450
same,antibody binding signal,[8],681
same,antibody binding signal,[9],326
same,antibody binding signal,[10],4950
same,antibody binding signal,[11],809
STPPSGTDKKTAAGG,antibody binding signal,[1],39300
same,antibody binding signal,[2],8790
same,antibody binding signal,[3],33700
same,antibody binding signal,[4],4980
same,antibody binding signal,[5],46400
same,antibody binding signal,[6],7890
same,antibody binding signal,[7],715
same,antibody binding signal,[8],177
same,antibody binding signal,[9],213
same,antibody binding signal,[10],584
same,antibody binding signal,[11],246
GTEKKPATGGAPSQP,antibody binding signal,[1],2890
same,antibody binding signal,[2],717
same,antibody binding signal,[3],12100
same,antibody binding signal,[4],1490
same,antibody binding signal,[5],2170
same,antibody binding signal,[6],2370
same,antibody binding signal,[7],324
same,antibody binding signal,[8],1710
same,antibody binding signal,[9],683
same,antibody binding signal,[10],232
same,antibody binding signal,[11],1270
